Publication PMC3307775
These are yes or no findings as the source states them, for the method shown. For some assays here: Binding seen in cells or lysates may run through a third protein. Some entries that bind do so weakly or less than the wild type.

By UniProt entry, the sequences of proteins in these tests, tags left out. Where a name states a change or a piece, a line headed by the entry shows the natural chain unless it says otherwise. Chains listed by the source or under a name are the forms on record and can include a tag or linker. Residues count along the entry.
Human full-length FGFR1βIIIC on T-Rex 293 cells (without KLB) (P11362, form named): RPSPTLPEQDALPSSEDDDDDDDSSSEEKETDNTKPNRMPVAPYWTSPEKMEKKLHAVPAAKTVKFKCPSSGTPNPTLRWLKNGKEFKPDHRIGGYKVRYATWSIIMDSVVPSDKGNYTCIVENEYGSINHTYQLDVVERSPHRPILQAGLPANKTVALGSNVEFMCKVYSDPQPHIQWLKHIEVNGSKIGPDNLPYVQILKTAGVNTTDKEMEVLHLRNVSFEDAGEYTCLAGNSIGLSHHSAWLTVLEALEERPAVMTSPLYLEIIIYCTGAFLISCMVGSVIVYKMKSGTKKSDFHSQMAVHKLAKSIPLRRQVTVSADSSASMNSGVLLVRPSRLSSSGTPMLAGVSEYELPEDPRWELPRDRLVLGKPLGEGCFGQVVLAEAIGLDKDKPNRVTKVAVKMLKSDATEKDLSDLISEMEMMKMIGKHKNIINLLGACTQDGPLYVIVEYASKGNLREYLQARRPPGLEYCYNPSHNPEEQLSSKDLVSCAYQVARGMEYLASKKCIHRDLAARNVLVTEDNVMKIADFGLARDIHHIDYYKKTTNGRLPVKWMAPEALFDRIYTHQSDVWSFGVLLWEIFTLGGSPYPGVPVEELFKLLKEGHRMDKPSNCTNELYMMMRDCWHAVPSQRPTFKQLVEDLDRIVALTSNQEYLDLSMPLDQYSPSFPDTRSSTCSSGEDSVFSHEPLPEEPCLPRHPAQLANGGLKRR
UniProt P22455, residues 22-802: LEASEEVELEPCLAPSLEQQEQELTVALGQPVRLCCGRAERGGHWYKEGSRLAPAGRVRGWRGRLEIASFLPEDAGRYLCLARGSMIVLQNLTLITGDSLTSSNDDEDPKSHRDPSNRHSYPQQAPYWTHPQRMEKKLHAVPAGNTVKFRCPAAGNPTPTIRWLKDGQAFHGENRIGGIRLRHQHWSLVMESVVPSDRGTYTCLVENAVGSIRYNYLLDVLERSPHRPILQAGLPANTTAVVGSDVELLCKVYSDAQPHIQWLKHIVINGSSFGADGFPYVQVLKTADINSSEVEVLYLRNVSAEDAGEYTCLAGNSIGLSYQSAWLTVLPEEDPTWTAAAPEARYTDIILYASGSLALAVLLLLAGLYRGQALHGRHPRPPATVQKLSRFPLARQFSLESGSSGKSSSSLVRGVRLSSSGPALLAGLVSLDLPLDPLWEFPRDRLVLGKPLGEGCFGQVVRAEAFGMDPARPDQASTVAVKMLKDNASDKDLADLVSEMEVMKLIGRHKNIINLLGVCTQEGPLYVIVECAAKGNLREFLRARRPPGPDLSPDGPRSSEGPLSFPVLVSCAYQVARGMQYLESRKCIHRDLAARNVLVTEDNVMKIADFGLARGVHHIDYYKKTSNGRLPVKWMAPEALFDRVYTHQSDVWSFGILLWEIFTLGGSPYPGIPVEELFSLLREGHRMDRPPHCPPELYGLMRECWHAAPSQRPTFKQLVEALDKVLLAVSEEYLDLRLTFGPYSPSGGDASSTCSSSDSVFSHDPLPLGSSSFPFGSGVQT
UniProt O95750, residues 25-216: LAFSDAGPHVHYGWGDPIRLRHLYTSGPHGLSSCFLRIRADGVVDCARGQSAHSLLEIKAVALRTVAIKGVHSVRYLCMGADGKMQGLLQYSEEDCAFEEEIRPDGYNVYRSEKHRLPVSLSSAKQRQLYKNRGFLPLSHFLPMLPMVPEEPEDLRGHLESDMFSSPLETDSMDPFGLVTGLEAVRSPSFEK

Experiments:
[1] = molecular target: T1, FGFR1-KLB complex on T-Rex 293 cells (inducible human FGFR1βIIIC and constitutive murine KLB) (human | murine) (UniProt P11362+Q99N32); assay: cross-linking; covalent affinity chemical cross-linking of ^125I-FGF19 bound to the surface of T-Rex 293 cells; only the binder purified
[2] = molecular target: Human full-length FGFR4 on T-Rex 293 cells (without KLB) (human) (UniProt P22455); assay: radioligand binding; dose-dependent competition: graded concentrations of unlabeled FGF21, FGF19 or FGF1 with 2 ng/ml ^125I-FGF19 on T-Rex 293 cells expressing FGFR1-KLB, FGFR4-KLB, KLB alone or FGFR4 alone; only the binder purified
[3] = molecular target: T2, Murine betaKlotho (KLB) on T-Rex 293 cells (without transfected FGFR) (murine) (UniProt Q99N32); assay: as above
T2 sequence: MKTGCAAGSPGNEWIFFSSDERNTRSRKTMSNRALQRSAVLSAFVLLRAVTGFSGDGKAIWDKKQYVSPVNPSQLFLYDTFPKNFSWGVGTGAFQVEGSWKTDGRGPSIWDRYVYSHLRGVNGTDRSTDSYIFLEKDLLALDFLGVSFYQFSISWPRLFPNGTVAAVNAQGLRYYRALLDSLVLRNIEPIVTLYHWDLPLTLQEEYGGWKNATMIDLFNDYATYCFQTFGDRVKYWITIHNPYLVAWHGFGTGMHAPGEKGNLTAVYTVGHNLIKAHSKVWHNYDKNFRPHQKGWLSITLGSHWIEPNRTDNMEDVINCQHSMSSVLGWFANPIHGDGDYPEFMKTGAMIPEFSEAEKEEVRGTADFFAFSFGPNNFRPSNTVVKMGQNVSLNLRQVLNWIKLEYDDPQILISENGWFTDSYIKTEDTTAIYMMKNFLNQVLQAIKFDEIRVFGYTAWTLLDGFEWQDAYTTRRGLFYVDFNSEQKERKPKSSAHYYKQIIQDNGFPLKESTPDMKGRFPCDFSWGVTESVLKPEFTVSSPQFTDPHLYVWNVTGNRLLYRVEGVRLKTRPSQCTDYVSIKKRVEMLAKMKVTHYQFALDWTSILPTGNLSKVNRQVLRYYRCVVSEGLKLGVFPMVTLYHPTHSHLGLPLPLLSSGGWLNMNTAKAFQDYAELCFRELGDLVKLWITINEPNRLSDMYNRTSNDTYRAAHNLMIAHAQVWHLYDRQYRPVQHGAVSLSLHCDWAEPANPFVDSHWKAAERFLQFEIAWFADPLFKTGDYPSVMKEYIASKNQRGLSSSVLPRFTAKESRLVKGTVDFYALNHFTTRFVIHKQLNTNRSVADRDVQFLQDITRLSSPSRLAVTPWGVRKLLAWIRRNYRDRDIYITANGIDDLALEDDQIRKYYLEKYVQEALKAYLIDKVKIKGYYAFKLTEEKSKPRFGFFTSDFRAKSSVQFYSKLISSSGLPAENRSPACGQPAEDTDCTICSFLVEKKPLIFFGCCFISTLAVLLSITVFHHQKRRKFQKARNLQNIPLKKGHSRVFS

[4] = molecular target: T1, FGFR1-KLB complex on T-Rex 293 cells (inducible human FGFR1βIIIC and constitutive murine KLB) (human | murine); assay: radioligand binding; 2 ng/ml ^125I-FGF1 or ^125I-FGF19 on parental T-Rex 293 cells and cells expressing FGFR1-KLB, FGFR1, FGFR4-KLB, FGFR4 or KLB (30 ng/ml Tet induction); cell surface bound radioactivity by γ-counter; only the binder purified
[5] = molecular target: T3, FGFR4-KLB complex on T-Rex 293 cells (inducible human FGFR4 and constitutive murine KLB) (human | murine) (UniProt P22455+Q99N32); assay: as above
[6] = molecular target: Human full-length FGFR1βIIIC on T-Rex 293 cells (without KLB) (human) (UniProt P11362); assay: as above
[7] = molecular target: T2, Murine betaKlotho (KLB) on T-Rex 293 cells (without transfected FGFR) (murine); assay: as above
[8] = molecular target: T1, FGFR1-KLB complex on T-Rex 293 cells (inducible human FGFR1βIIIC and constitutive murine KLB) (human | murine); assay: radioligand binding; competition at one concentration: unlabeled FGF21, FGF19 or FGF1 at 1 µg/ml (text: FGF1 at 100 ng/ml) with 2 ng/ml ^125I-FGF19 on T-Rex 293 cells expressing FGFR1-KLB, FGFR1, FGFR4-KLB, FGFR4 or KLB; only the binder purified
[9] = molecular target: T3, FGFR4-KLB complex on T-Rex 293 cells (inducible human FGFR4 and constitutive murine KLB) (human | murine); assay: as above
[10] = molecular target: Human full-length FGFR4 on T-Rex 293 cells (without KLB) (human) (UniProt P22455); assay: as above
[11] = molecular target: T2, Murine betaKlotho (KLB) on T-Rex 293 cells (without transfected FGFR) (murine); assay: as above

Measured: binding

Human FGF19 with 6×His tag at the N-terminus (from UniProt O95750 25-216) (ligand)
binds weakly: [2] | [10]
no binding (tested: 2 ng/ml): [6]
binds: all other assays above
